Assay results from PubChem BioAssay AID1346428 (National Center for Advancing Translational Sciences (NCATS), 2018).
The campaign covered roughly 48,000 compounds. About 1,200 (2.5%) were called active. Not shown: some 2% with an inconclusive outcome.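 Rule for the calls: active = activation of at least 60% and not above a set upper limit (about 1 call in 100 departs from these limits); inconclusive = activation of 40% to 60%, or above that upper limit; inactive = activation under 40%.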 This is one part of the list.

What follows are molecules tested against Probable G-protein coupled receptor 32 (Homo sapiens) (UniProt O75388) (assay: qHTS for Agonists of Human Resolvin D1 Receptor DRV1). Details: CHO-K1 GPR32 beta-arrestin PathHunter luminescence, 90 min; at 76.9 µM; stronger effect = higher value; zero percent set by DMSO-only wells.
Sequence of UniProt O75388 (O75388 whole entry, looked up): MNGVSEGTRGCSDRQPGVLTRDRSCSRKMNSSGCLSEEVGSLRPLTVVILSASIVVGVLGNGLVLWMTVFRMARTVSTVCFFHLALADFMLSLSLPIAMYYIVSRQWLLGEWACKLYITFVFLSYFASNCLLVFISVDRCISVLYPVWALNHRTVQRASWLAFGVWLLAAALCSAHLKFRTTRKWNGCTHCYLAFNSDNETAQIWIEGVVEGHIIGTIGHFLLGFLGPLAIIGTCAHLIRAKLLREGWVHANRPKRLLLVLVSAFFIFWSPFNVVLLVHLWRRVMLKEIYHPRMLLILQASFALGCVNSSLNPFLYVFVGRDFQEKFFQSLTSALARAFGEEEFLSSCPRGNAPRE
Summary of the method: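 CHO-K1 cells stably expressing ProLink-tagged GPR32 and Enzyme Activator-tagged beta-arrestin were seeded at 2,500 cells/well overnight, exposed to compounds for 90 min at 37 °C, then read by beta-Gal complementation chemiluminescence after 1 h detection reagent.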
Note: 0% is about no effect.

Row | SMILES | activation
1 | Cc1ccc(C)c(N2CCN(C(=O)c3ccc4c(c3)c(C)c(C)n4C)CC2)c1 | inactive: -29.7%
2 | COc1ccc(Nc2nnc(-c3ccc(C)c(S(=O)(=O)N4CCN(C)CC4)c3)c3ccccc23)cc1 | inactive: -0.599%
3 | Cc1nc2sccn2c(=O)c1S(=O)(=O)NCc1ccccc1 | inactive: 4.79%
4 | COC(=O)c1ccc(OC)c(CN2CCCN(Cc3ccc(C)cc3)S2(=O)=O)c1 | inactive: -9.14%
5 | COc1cc2c(cc1OC)C(COc1ccc3c(C)cc(=O)oc3c1)N(C(=O)c1ccc(C)c(C)c1)CC2 (stereo not given) | inactive: -1.47%
6 | COc1ccc(Cl)cc1C(=O)NCC(c1ccc(N(C)C)cc1)N1CCOCC1 (stereo not given) | inactive: -13.6%
7 | Cc1oc2c(c1C(=O)Nc1ccc(Cl)cc1F)C1=NCCN1C=N2 | inactive: 6.48%
8 | Cc1cccc(C)c1OCC(=O)N(Cc1ccc(Cl)cc1)CC1CCCO1 (stereo not given) | inactive: -18.8%
9 | CCCN(Cc1cccs1)C(=O)Nc1ccccc1C | inactive: -15.9%
10 | CC1CCCN(c2csc3ccccc3c2=O)C1 (stereo not given) | inactive: -24.2%
11 | CC(C)c1nn2c(=O)cc(COC(=O)c3ccccc3NC(=O)c3cccs3)nc2s1 | inactive: -4.96%
12 | Cn1c(=O)c2c(nc(NCCc3ccccc3)n2Cc2ccc(Cl)c(Cl)c2)n(C)c1=O | inactive: 1.33%
13 | O=C(O)CCNC(=O)c1ccccc1 | inactive: -5.58%
14 | CCOc1ccc(N(Cc2cc3cc(C)ccc3[nH]c2=O)C(=O)c2cccc(Cl)c2)cc1 | inactive: -8.79%
15 | COc1ccc(S(=O)(=O)NCCc2cn3ccsc3n2)cc1OC | inactive: -2.25%
16 | O=C(N[C@H](CO)[C@H](O)c1ccc([N+](=O)[O-])cc1)C(Cl)Cl | inactive: -33.7%
17 | CCOC(=O)C1CCN(CCC(=O)Nc2ccccc2Cl)CC1 | inactive: 1.55%
18 | O=C(CCS(=O)(=O)c1cc2c3c(c1)CCN3C(=O)CC2)NCc1ccc(Cl)cc1 | inactive: -10.2%
19 | COc1ccc(/C=C/c2nc(C#N)c(NC3CCCCC3)o2)cc1OC | inactive: -17.5%
20 | Cc1ccc(CNC(=O)CCc2c(C)nn(-c3ccc(N4CCCC4)nn3)c2C)cc1 | inactive: -9.65%
21 | COC(=O)CSc1ccc2nnc(CCNS(=O)(=O)c3ccc(C)cc3)n2n1 | inactive: -9.86%
22 | CCOC(=O)C1=C(CN2CCN(c3ccccc3F)CC2)NC(=O)NC1c1ccc(OC)cc1 (stereo not given) | inactive: -4.67%
23 | COc1ccccc1CNC(=O)Cn1c(-c2cccs2)cc2cc(F)ccc21 | active: 103%
24 | CCOc1ccccc1NC(=O)Cn1nc2c3cc(F)ccc3n(Cc3cccc(C)c3)cc-2c1=O | inactive: -7.1%
25 | COc1ccc(CCNC(=O)c2cc(-c3ccc(Cl)cc3)on2)cc1OC | inactive: 7.21%
26 | COc1cccc(NC(=O)CCc2nc(-c3cc(OC)c(OC)c(OC)c3)no2)c1 | inactive: 15.4%
27 | COc1cc2c(C(=O)N3CCN(c4ccc(C)cc4)C(C)C3)cn(CC(C)C)c(=O)c2cc1OC (stereo not given) | inactive: 19.6%
28 | Cc1nc2ccccn2c(=O)c1NC(=O)c1ccccc1Cl | inactive: -12.8%

Row | SMILES | activation
29 | Cc1ccc(C)c(NC(=O)C(=O)NCCc2csc(-c3cccc(F)c3)n2)c1 | inactive: -2.03%
30 | Cn1c(=O)cc(SCC(=O)Nc2cccc(C#N)c2)c2ccc(Cl)cc21 | inactive: -1.69%
31 | CCOC(=O)c1ccc(NC(=O)c2cc3c(=O)n(C)c4ccccc4c3n2C)cc1 | inactive: -3.11%
32 | COC(=O)C1=C(C)NC(C)=C(C(=O)O[C@@H]2CCCN(Cc3ccccc3)C2)[C@@H]1c1cccc([N+](=O)[O-])c1 | inactive: -5.03%
33 | COc1ccc(N2CCN(C(=O)Cc3noc4ccc(C)cc34)CC2)cc1 | inactive: -28.6%
34 | Cc1ccc(CN2CCc3nc(N4CCN(C)CC4)ncc3C2)cc1 | inactive: -32.5%
35 | CCc1ccc(NC(=O)Cn2ccn(-c3cccc(Cl)c3)c(=O)c2=O)cc1 | inactive: -4.95%
36 | COc1ccc(C(=O)N2CCC(c3ccncc3)CC2)cc1OC | inactive: 14%
37 | CCOc1ccc(-c2ccc(NS(=O)(=O)c3cc(C)c(C)cc3C)cc2)nn1 | inactive: -12.7%
38 | Cc1ccc2c(c1)c1c3n2CCNC3CCC1 (stereo not given) | inactive: 4.07%
39 | Cc1ccccc1CN1CCc2nc(Nc3ccc4c(c3)OCCO4)ncc2C1 | inactive: -4.88%
40 | CCOc1ccc(CCNC(=O)c2ccc(CS(=O)(=O)Cc3ccccc3Cl)o2)cc1OCC | inactive: -7.47%
41 | CCN(C(=O)COc1cc(=O)n(C)c2ccccc12)c1cccc(C(F)(F)F)c1 | inactive: 16.1%
42 | CC(NC(=O)CCn1c(=O)c2cccn2c2ccc(F)cc21)c1ccccc1 (stereo not given) | inactive: -17.6%
43 | O=C(c1cc2c(=O)[nH]c3ccccc3c2s1)N1CCN(c2ccc(F)cc2)CC1 | inactive: 1.97%
44 | CCOc1ccc(C(=O)Nc2ccc(-c3nc4cc(CC)ccc4o3)cc2)cc1 | inactive: -1.85%
45 | COc1ccc(NC(=O)C(=O)NCCc2csc(-c3ccc(Cl)cc3)n2)cc1 | inactive: 1.29%
46 | COc1cccc(NC(=O)c2oc3ccccc3c2NC(=O)C23CC4CC(CC(C4)C2)C3)c1 | inactive: 1.16%
47 | COc1ccc(CN2COc3ccc4c(C)cc(=O)oc4c3C2)cc1 | inactive: -3.06%
48 | CC(=O)N[C@@H](Cc1c[nH]c2ccccc12)C(=O)OCc1cc(C(F)(F)F)cc(C(F)(F)F)c1 | inactive: 0.29%
49 | COc1cccc2c1Oc1nc(-c3ccccc3)nc(SCC(=O)N3CCCCC3)c1C2 | inactive: 8.32%
50 | COc1ccccc1NC(=O)Cn1c(=O)n(Cc2ccccc2)c(=O)c2ccccc21 | inactive: -11.8%
51 | COC(=O)c1ccc(NC(=O)Nc2nnc(N(C)C3CCCCC3)s2)cc1 | inactive: 7.41%
52 | CCCOc1ccc(Nc2nc(SC)ncc2C(=O)OCC)cc1 | inactive: -22%
53 | O=C(CCn1c(=O)c2cccn2c2ccc(F)cc21)NCCc1ccccc1Cl | inactive: -19.4%
54 | Cc1coc2c(C)c3oc(=O)c(CC(=O)N4CCCCC4)c(C)c3cc12 | inactive: -5.77%
55 | COc1ccc(-c2nc3nc(C)cc(Nc4ccc(C(C)=O)cc4)n3n2)cc1 | inactive: 1.25%
